# Experimental data reported in PubChem BioAssay (Tox21).
# “And” between values parts separate entries of the source, which are not always exact repeats. Equal values may be shown once. Inconclusive results, whose numbers are uncertain, are shown with a selection of clear calls. Entries that show only a call come without a potency. For some of these results: Potencies of inconclusive entries are doubtful fits and often do not repeat. Some compounds were tested as several samples or in several runs, with calls that do not always agree. The source made the active and inactive calls. Unless noted, calls come from the whole dose curve; as a rule, active = well fitted curve in the direction sought with a large enough effect in the repeat runs; inconclusive = weak or mixed curves; inactive = no such curve, though single readings can be large; an effect the other way counts as inactive or inconclusive.
# Assay: qHTS assay to identify small molecule agonists of H2AX - cell viability counter screen (AID 1224847; calls by dose curve; note: nearly all actives have a fitted effect of over 30% in size; note: potency is the fitted concentration of half-maximal effect)
# Conditions: CHO-K1 viability, CellTiter-Glo luminescence, 3 h; series mostly up to 154 µM
# In short: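 Quantitative HTS viability measurement: CHO-K1 wild-type cells in serum (10% FBS) medium, short 3 hr drug exposure at 37C with 0.76% DMSO, CellTiter-Glo luminescent detection.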
# Tags give direction and shape of the fitted curve.
row,Structure (SMILES),Potency
1,CCC(C)(C)C(=O)O,inactive
2,Clc1ccccc1-c1nc(-c2ccncc2)no1,"inconclusive: 49.2 µM [cytotoxic, single point]"
3,CC(=O)O[C@H]1CC[C@@]2(C)C(=CC[C@@H]3[C@@H]2CC[C@]2(C)C(C(C)=O)=CC[C@@H]32)C1,"inconclusive: 61.9 µM [cytotoxic, single point]"
4,O=C(O)c1ccccc1Cl,inactive
5,O=c1n(CCCN2CCN(c3cccc(Cl)c3)CC2)nc2ccccn12,"inconclusive: 127 µM [cytotoxic, single point]"
6,CCn1nc(C)c2c1C(=O)NCC(c1ccc(O)cc1)=N2,"inconclusive: 113 µM [rising, partial curve, poor fit]"

# Assay: qHTS assay to identify small molecule antagonists of the estrogen related receptor (ERR) signaling pathway from Tox21 library (AID 1224848); note: nearly all actives have a fitted effect of over 50% in size; note: potency is the fitted concentration of half-maximal effect
# Conditions: ERR reporter cell line, luciferase antagonist mode, 18 h; series mostly up to 92.4 µM
# In short: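 ERR reporter cell line (from NTP) seeded 2,000 cells/well, rested 6 h at 37 C/5% CO2, then pin-dosed with compounds in DMSO. After 18 h at 37 C, ONE-Glo added; luminescence read after 30 min at room temperature.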
row,Structure (SMILES),Potency
1,O=C(O)CCCCC1CCSS1 (stereo unspecified),inactive
2,C1CCOC1,inactive
3,CC(C)(C)C1CCC(=O)CC1,inactive
4,CC(C)CCOCc1ccccc1,inactive
5,CC(C)Oc1ccccc1O,inactive
6,CCC(C)C1N=C(C)C(C)S1 (stereo unspecified),inactive
7,C[Si](C)(CCCN)O[Si](C)(C)CCCN,inactive
8,O=c1n(CCCN2CCN(c3cccc(Cl)c3)CC2)nc2ccccn12,"inconclusive: 54.5 µM [inhibitor, partial curve] and inconclusive: 29.8 µM [inhibitor, partial curve, poor fit]"

# Assay: qHTS RealTime-Glo MT Cell Viability Assay in HepG2 cells - 24 hour (AID 1224867); note: nearly all actives have a fitted effect of over 50% in size
# Conditions: RealTime-Glo luminescence; series mostly up to 76.8 µM
# In short: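 Cell number in HepG2 cultures estimated from NanoLuc luminescence generated by metabolic reduction of a prosubstrate by living cells. The homogeneous, nonlytic format allowed repeated reads at 0, 8, 16, 24, 32 and 40 h of compound exposure.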
row,Structure (SMILES),Potency
1,CC(=O)O[C@@H]1C(=O)O[C@@H]2[C@H]1OC(=O)[C@@H]2OC(C)=O,inactive
2,CCCCOCCOC(=O)CCCCCCCCC(=O)OCCOCCCC,inactive
3,O=C(O)C1(C(=O)Nc2ccc(Cl)cc2Cl)CC1,inactive

# Assay: qHTS RealTime-Glo MT Cell Viability Assay in HEK293 cells - 32 hour (AID 1224868); note: nearly all actives have a fitted effect of over 50% in size; note: potency is the fitted concentration of half-maximal effect
# Conditions: RealTime-Glo luminescence; series mostly up to 76.8 µM
# In short: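 Homogeneous bioluminescent viability format in HEK293 cells (600 cells/well). Following 5 h at 37 C/5% CO2, 23 nL compound was pintooled; the signal was measured repeatedly during 40 h incubation.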
row,Structure (SMILES),Potency
1,CCC(C)(C)C(=O)O,inactive
2,O=C(O)CCCCC1CCSS1 (stereo unspecified),inactive
3,C1CCOC1,inactive
4,CC(=O)c1c(C)cc(C(C)(C)C)cc1C,"inconclusive: 27.5 µM [cytotoxic, partial curve]"
5,CC(C)Nc1ccccc1,inactive
6,CC(=O)Nc1ccc(CC(=O)O)cc1,inactive
7,c1ccc(CNc2ncnc3nc[nH]c23)cc1,"inconclusive: 27.5 µM [cytotoxic, partial curve]"
8,C=CCOC(=O)/C=C\C(=O)OCC=C,"inconclusive: 49.9 µM [rising, single point]"
9,Clc1ccccc1-c1nc(-c2ccncc2)no1,"inconclusive: 12 µM [cytotoxic, partial curve, poor fit]"
10,CC(=O)O[C@H]1CC[C@@]2(C)C(=CC[C@@H]3[C@@H]2CC[C@]2(C)C(C(C)=O)=CC[C@@H]32)C1,"inconclusive: 26.8 µM [cytotoxic, partial curve, poor fit]"
11,CC(C)Oc1ccccc1O,inactive
12,CCCCCCC(C)O (stereo unspecified),inactive
13,CC(C)CCCCCCOC(=O)C1CCCCC1C(=O)OCCCCCCC(C)C (stereo unspecified),inactive
14,O=C(O)c1ccccc1Cl,"inconclusive: 0.195 µM [cytotoxic, single point]"
15,C=CC(C)(O)CC/C=C(/C)CCC=C(C)C (stereo unspecified),inactive
16,C[N+](C)(C)CCCCCC[N+](C)(C)C,inactive
17,CCN(CC)CCNC(=O)c1cc(S(C)(=O)=O)ccc1OC,inactive
18,CCN(CCCc1ccccc1)CCCc1ccccc1,"inconclusive: 21.3 µM [cytotoxic, partial curve]"
19,CC(C)(C)OC(=O)c1ccccc1C(=O)O,inactive
20,CC(C)COC(=O)c1ccccc1O,inactive
21,CN1Cc2c(N)cccc2C(c2ccccc2)C1 (stereo unspecified),inactive
22,COc1cccc([C@H](O)C2CCN(CCc3ccc(F)cc3)CC2)c1OC,"inconclusive: 38.9 µM [cytotoxic, partial curve]"
23,Cc1cccc(C)c1NC(=O)C(C)N (stereo unspecified),inactive

# Assay: A CellTox Green Cytotoxicity Assay to monitor cytotoxicity in HEK293 cells - 0 hour (AID 1224869); note: nearly all actives have a fitted effect of over 50% in size; note: potency is the fitted concentration of half-maximal effect
# Conditions: CellTox Green fluorescence; series mostly up to 76.8 µM
# In short: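 Each value comes from one timepoint of a single continuous run in which HEK293 cells with CellTox Green were exposed to compound for up to 40 h at 37 C, dye fluorescence rising with cell death.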
row,Structure (SMILES),Potency
1,OC1CCCCCCCCCCC1,active: 43.6 µM
2,CCCCC,"inconclusive: 21.5 µM [activator, partial curve, poor fit]"
3,CCCCCCCOC(=O)CCC,inactive
4,O=C(O)c1cccc(Cl)n1,"inconclusive: 54.9 µM [activator, single point]"
5,NC(CO)(CO)CO,"inconclusive: 21.9 µM [activator, single point]"
6,Cc1cccc(C)c1NC(=O)C(C)N (stereo unspecified),active: 21.3 µM
